Here are results for nine molecules from paper PMC9388692, “Nuclear import of PTPN18 inhibits breast cancer metastasis mediated by MVP and importin β2” (Cell Death & Disease, 2022).

Chains of the proteins cited; added tags and fusions are not shown. Lines headed by an entry give the natural chain unless they say otherwise; changes in a name come on top. A line that says so, or that is headed by a name, gives the form on record, which may keep a tag or linker.
UniProt Q14764: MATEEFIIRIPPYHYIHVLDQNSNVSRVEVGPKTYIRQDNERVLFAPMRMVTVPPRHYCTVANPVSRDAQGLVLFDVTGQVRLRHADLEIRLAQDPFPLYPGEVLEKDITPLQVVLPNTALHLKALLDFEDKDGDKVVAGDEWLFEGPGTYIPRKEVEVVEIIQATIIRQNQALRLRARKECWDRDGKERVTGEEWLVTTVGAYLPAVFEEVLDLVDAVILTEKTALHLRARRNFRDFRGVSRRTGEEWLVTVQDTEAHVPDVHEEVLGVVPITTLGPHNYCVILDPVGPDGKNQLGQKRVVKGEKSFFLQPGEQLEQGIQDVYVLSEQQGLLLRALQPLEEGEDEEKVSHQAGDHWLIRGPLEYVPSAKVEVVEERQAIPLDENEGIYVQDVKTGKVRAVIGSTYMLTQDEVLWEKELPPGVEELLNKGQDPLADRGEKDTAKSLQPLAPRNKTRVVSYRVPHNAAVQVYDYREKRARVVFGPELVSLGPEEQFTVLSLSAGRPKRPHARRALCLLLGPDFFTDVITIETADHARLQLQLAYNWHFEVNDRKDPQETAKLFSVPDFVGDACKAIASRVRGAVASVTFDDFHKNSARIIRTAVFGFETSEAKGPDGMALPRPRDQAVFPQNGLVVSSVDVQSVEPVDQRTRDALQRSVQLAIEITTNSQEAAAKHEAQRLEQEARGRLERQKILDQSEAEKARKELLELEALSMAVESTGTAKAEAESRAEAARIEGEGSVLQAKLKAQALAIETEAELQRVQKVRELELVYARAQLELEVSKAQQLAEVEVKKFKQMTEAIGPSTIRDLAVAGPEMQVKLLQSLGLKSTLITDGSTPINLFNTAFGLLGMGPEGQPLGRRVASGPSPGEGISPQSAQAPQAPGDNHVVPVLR
Flag-MVP EA/TA mutant (Q14764, form named): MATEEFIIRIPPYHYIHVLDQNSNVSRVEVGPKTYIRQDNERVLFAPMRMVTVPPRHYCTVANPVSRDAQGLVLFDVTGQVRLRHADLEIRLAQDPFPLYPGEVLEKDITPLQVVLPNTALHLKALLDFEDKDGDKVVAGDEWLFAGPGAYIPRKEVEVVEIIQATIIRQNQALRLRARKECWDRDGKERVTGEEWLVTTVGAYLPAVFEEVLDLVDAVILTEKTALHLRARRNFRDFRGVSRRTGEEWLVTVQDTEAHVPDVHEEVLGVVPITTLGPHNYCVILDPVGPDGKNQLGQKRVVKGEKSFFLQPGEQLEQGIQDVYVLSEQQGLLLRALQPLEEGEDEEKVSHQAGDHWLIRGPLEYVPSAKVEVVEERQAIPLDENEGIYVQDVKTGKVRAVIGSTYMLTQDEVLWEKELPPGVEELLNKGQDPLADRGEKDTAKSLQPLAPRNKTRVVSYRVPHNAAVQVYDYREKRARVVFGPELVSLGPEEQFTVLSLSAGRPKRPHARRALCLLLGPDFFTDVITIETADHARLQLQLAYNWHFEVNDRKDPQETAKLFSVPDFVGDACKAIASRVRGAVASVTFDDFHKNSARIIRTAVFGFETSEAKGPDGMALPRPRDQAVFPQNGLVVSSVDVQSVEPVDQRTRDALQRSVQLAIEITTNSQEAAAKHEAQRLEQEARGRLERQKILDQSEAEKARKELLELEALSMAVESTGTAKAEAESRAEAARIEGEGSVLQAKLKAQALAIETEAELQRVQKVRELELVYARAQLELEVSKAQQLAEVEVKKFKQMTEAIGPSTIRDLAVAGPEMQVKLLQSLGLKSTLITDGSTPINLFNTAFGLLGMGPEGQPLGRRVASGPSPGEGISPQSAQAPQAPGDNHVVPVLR
UniProt Q14974: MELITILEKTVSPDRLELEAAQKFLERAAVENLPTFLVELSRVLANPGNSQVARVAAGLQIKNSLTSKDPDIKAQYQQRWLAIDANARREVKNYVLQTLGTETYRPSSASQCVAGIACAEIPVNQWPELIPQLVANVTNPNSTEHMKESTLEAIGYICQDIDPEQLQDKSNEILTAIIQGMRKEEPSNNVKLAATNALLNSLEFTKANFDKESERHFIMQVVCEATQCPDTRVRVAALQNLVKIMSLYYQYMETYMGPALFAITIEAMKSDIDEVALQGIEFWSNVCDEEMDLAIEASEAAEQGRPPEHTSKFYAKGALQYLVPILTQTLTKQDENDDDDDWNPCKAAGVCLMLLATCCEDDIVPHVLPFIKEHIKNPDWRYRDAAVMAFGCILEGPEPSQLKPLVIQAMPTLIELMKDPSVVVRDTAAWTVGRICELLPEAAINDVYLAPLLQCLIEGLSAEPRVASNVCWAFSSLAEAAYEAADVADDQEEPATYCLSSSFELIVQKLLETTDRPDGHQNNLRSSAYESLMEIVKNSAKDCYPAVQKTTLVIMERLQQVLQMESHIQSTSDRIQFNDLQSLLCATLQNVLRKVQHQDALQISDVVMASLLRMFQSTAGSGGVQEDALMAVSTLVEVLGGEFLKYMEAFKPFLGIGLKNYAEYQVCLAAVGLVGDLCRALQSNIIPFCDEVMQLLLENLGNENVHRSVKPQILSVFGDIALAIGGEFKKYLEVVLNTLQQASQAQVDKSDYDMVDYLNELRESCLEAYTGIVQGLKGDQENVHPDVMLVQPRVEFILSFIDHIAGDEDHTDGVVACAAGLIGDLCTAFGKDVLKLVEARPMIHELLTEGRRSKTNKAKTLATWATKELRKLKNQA
UniProt Q92973: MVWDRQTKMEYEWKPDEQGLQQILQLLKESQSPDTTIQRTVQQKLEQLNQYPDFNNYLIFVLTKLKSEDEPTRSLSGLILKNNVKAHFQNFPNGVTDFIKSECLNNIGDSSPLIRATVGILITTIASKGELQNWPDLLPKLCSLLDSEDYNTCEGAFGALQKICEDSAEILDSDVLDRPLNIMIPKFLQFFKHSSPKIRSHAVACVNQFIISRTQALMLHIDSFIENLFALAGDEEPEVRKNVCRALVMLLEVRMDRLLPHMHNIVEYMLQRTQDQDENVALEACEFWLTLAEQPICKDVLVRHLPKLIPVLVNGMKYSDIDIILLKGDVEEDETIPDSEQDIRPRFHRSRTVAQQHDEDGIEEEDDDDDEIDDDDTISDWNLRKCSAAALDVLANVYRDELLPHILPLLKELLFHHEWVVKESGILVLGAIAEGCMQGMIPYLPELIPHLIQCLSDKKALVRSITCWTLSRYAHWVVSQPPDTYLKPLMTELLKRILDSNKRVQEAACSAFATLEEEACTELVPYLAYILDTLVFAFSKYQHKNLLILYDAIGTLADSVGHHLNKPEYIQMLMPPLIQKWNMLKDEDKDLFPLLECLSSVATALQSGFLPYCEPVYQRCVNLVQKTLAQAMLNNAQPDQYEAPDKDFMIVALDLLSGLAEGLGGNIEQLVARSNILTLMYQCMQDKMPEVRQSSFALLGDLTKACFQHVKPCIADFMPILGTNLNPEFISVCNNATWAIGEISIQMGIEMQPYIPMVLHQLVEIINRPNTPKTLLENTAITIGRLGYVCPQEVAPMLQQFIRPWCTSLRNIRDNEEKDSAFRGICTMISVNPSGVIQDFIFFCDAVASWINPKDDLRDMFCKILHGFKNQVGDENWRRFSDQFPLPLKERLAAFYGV

The target in test [1] is T1, PTPN18 (endogenous) (human (endogenous in MCF7 and T-47D)) (UniProt Q99952).
T1 sequence: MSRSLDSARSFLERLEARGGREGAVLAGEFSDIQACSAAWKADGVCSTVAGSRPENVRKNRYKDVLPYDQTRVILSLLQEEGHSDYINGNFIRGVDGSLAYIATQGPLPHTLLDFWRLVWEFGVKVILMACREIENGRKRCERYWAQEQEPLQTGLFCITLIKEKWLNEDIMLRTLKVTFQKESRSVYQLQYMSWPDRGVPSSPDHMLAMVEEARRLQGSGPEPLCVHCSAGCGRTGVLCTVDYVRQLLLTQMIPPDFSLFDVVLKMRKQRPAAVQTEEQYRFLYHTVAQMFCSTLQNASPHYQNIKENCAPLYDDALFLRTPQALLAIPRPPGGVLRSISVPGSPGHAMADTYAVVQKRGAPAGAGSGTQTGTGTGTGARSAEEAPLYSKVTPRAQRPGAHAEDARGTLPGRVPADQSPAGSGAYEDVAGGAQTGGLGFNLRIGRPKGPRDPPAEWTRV
As to the kind of experiment: co-IP; endogenous proteins, lysates of MCF7 and T-47D cells in RIPA buffer, primary antibody overnight at 4 °C, protein A/G agarose, western blot. In general terms: Immunoblotting shows a protein as a band on a membrane.

Test [2] deals with T2, ectopic PTPN18 (co-IP of Fig. 1D) (UniProt Q99952).
T2 sequence: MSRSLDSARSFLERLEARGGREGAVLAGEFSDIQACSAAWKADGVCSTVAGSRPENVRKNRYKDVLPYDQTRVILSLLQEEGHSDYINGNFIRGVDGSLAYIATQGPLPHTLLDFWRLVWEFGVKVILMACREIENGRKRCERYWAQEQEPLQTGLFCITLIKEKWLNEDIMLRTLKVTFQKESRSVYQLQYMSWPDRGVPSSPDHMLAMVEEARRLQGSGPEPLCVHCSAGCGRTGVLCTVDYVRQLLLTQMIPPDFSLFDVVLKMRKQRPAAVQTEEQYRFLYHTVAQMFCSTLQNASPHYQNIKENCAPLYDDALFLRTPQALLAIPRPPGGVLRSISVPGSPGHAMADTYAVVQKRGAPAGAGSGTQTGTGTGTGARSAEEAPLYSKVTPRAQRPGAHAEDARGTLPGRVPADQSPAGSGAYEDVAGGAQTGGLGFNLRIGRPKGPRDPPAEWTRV
As to the kind of experiment: co-IP; ectopic tagged proteins in 293T cells, lysed 48 h after transfection in RIPA buffer, primary antibody overnight at 4 °C, protein A/G agarose, western blot.

The next test has as its target Flag-MVP (UniProt Q14764). The test is described as above.
The target in the next test is importin β1 (UniProt Q14974). The test is described as follows: co-IP; PTPN18 and members of the importin family; cells and constructs not stated.
The target of test [3] is importin β2 (co-IP, Fig. 3D) (UniProt Q92973). The description is as above.
The target in the next test is T3, importin β3 (UniProt O00410).
T3 sequence: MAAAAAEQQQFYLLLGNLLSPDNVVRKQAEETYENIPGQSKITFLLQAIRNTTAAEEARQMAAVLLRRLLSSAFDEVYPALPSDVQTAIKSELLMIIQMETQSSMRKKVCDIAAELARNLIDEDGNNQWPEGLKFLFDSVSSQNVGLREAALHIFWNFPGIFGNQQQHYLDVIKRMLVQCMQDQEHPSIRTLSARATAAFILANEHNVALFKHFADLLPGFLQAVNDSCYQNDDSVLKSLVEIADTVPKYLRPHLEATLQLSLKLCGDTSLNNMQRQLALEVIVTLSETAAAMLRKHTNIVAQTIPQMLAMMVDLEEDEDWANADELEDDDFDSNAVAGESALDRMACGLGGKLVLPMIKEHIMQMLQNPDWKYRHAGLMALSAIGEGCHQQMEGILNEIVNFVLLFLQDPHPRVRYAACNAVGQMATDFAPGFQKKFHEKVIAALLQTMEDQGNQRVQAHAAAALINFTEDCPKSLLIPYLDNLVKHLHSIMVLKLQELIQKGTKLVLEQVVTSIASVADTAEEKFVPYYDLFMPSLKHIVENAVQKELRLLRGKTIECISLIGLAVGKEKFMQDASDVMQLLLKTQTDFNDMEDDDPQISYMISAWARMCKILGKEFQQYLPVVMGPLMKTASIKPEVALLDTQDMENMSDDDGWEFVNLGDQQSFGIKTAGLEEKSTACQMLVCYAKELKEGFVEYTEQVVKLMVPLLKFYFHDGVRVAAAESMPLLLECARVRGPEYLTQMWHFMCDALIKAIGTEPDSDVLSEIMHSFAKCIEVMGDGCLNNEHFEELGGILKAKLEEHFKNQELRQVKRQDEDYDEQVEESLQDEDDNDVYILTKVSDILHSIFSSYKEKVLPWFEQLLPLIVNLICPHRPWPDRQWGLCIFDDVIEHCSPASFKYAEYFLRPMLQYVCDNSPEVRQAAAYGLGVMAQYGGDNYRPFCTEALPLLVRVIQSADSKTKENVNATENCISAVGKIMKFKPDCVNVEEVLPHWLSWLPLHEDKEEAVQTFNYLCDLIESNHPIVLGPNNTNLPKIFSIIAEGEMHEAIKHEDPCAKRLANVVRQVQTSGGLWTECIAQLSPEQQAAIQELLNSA
The test is described as above.

For test [4], the target named is MVP (endogenous) (human (endogenous in MCF7 and T-47D)) (UniProt Q14764). The test is described as follows: co-IP; endogenous proteins, lysates of MCF7 and T-47D cells in RIPA buffer, primary antibody overnight at 4 °C, protein A/G agarose, western blot.
In a further test the target is Flag-MVP EA/TA mutant (UniProt Q14764). As to the kind of experiment: co-IP; ectopic tagged proteins in 293T cells, lysed 48 h after transfection in RIPA buffer, primary antibody overnight at 4 °C, protein A/G agarose, western blot.
Test [5] concerns the target ectopic MVP (co-IP of Fig. 1D) (UniProt Q14764). The test is described as above.

These are yes or no findings as the source states them, for the method shown. In cells and extracts the contact can be indirect. Some results given as binding are weak or reduced against the parent protein; the word gives no strength. For some assays here: Sequences can lack the tags named with a protein.

On to “MVP (endogenous) (from UniProt Q14764 1-893)”, for which the binding entry in test [1] was “binds”.
Consider “ectopic MVP (co-IP of Fig. 1D) (from UniProt Q14764 1-893)”, for which the binding result in test [2] is listed as “binds”.

B1: PTPN18-GFP ΔpNLS2C (protein, UniProt Q99952)
chain: MSRSLDSARSFLERLEARGGREGAVLAGEFSDIQACSAAWKADGVCSTVAGSRPENVRKNRYKDVLPYDQTRVILSLLQEEGHSDYINGNFIRGVDGSLAYIATQGPLPHTLLDFWRLVWEFGVKVILMACWAQEQEPLQTGLFCITLIKEKWLNEDIMLRTLKVTFQKESRSVYQLQYMSWPDRGVPSSPDHMLAMVEEARRLQGSGPEPLCVHCSAGCGRTGVLCTVDYVRQLLLTQMIPPDFSLFDVVLKMRKQRPAAVQTEEQYRFLYHTVAQMFCSTLQNASPHYQNIKENCAPLYDDALFLRTPQALLAIPRPPGGVLRSISVPGSPGHAMADTYAVVQKRGAPAGAGSGTQTGTGTGTGARSAEEAPLYSKVTPRAQRPGAHAEDARGTLPGRVPADQSPAGSGAYEDVAGGAQTGGLGFNLRIGRPKGPRDPPAEWTRV
For B1, the binding result with Flag-MVP is recorded as “no binding”.

B2: PTPN18 (co-IP with the importin family, Fig. 3D) (protein, UniProt Q99952 1-460)
chain: MSRSLDSARSFLERLEARGGREGAVLAGEFSDIQACSAAWKADGVCSTVAGSRPENVRKNRYKDVLPYDQTRVILSLLQEEGHSDYINGNFIRGVDGSLAYIATQGPLPHTLLDFWRLVWEFGVKVILMACREIENGRKRCERYWAQEQEPLQTGLFCITLIKEKWLNEDIMLRTLKVTFQKESRSVYQLQYMSWPDRGVPSSPDHMLAMVEEARRLQGSGPEPLCVHCSAGCGRTGVLCTVDYVRQLLLTQMIPPDFSLFDVVLKMRKQRPAAVQTEEQYRFLYHTVAQMFCSTLQNASPHYQNIKENCAPLYDDALFLRTPQALLAIPRPPGGVLRSISVPGSPGHAMADTYAVVQKRGAPAGAGSGTQTGTGTGTGARSAEEAPLYSKVTPRAQRPGAHAEDARGTLPGRVPADQSPAGSGAYEDVAGGAQTGGLGFNLRIGRPKGPRDPPAEWTRV
As for B2, the binding result is given as “no binding” in the test with importin β1, “binds” in test [3] and “no binding” with importin β3.

B3: PTPN18 (endogenous) (protein, UniProt Q99952 1-460)
chain: MSRSLDSARSFLERLEARGGREGAVLAGEFSDIQACSAAWKADGVCSTVAGSRPENVRKNRYKDVLPYDQTRVILSLLQEEGHSDYINGNFIRGVDGSLAYIATQGPLPHTLLDFWRLVWEFGVKVILMACREIENGRKRCERYWAQEQEPLQTGLFCITLIKEKWLNEDIMLRTLKVTFQKESRSVYQLQYMSWPDRGVPSSPDHMLAMVEEARRLQGSGPEPLCVHCSAGCGRTGVLCTVDYVRQLLLTQMIPPDFSLFDVVLKMRKQRPAAVQTEEQYRFLYHTVAQMFCSTLQNASPHYQNIKENCAPLYDDALFLRTPQALLAIPRPPGGVLRSISVPGSPGHAMADTYAVVQKRGAPAGAGSGTQTGTGTGTGARSAEEAPLYSKVTPRAQRPGAHAEDARGTLPGRVPADQSPAGSGAYEDVAGGAQTGGLGFNLRIGRPKGPRDPPAEWTRV
Take B3: the binding entry in test [4] is on record as “binds”.

B4: HA-PTPN18 (protein, UniProt Q99952 1-460)
chain: MSRSLDSARSFLERLEARGGREGAVLAGEFSDIQACSAAWKADGVCSTVAGSRPENVRKNRYKDVLPYDQTRVILSLLQEEGHSDYINGNFIRGVDGSLAYIATQGPLPHTLLDFWRLVWEFGVKVILMACREIENGRKRCERYWAQEQEPLQTGLFCITLIKEKWLNEDIMLRTLKVTFQKESRSVYQLQYMSWPDRGVPSSPDHMLAMVEEARRLQGSGPEPLCVHCSAGCGRTGVLCTVDYVRQLLLTQMIPPDFSLFDVVLKMRKQRPAAVQTEEQYRFLYHTVAQMFCSTLQNASPHYQNIKENCAPLYDDALFLRTPQALLAIPRPPGGVLRSISVPGSPGHAMADTYAVVQKRGAPAGAGSGTQTGTGTGTGARSAEEAPLYSKVTPRAQRPGAHAEDARGTLPGRVPADQSPAGSGAYEDVAGGAQTGGLGFNLRIGRPKGPRDPPAEWTRV
Turning to B4, the binding entry with Flag-MVP EA/TA mutant is given as “no binding”.

B5: PTPN18-GFP WT (protein, UniProt Q99952 1-460)
chain: MSRSLDSARSFLERLEARGGREGAVLAGEFSDIQACSAAWKADGVCSTVAGSRPENVRKNRYKDVLPYDQTRVILSLLQEEGHSDYINGNFIRGVDGSLAYIATQGPLPHTLLDFWRLVWEFGVKVILMACREIENGRKRCERYWAQEQEPLQTGLFCITLIKEKWLNEDIMLRTLKVTFQKESRSVYQLQYMSWPDRGVPSSPDHMLAMVEEARRLQGSGPEPLCVHCSAGCGRTGVLCTVDYVRQLLLTQMIPPDFSLFDVVLKMRKQRPAAVQTEEQYRFLYHTVAQMFCSTLQNASPHYQNIKENCAPLYDDALFLRTPQALLAIPRPPGGVLRSISVPGSPGHAMADTYAVVQKRGAPAGAGSGTQTGTGTGTGARSAEEAPLYSKVTPRAQRPGAHAEDARGTLPGRVPADQSPAGSGAYEDVAGGAQTGGLGFNLRIGRPKGPRDPPAEWTRV
With B5, in the test with Flag-MVP, the binding entry is on record as “binds”.

B6: ectopic PTPN18 (co-IP of Fig. 1D) (protein, UniProt Q99952 1-460)
chain: MSRSLDSARSFLERLEARGGREGAVLAGEFSDIQACSAAWKADGVCSTVAGSRPENVRKNRYKDVLPYDQTRVILSLLQEEGHSDYINGNFIRGVDGSLAYIATQGPLPHTLLDFWRLVWEFGVKVILMACREIENGRKRCERYWAQEQEPLQTGLFCITLIKEKWLNEDIMLRTLKVTFQKESRSVYQLQYMSWPDRGVPSSPDHMLAMVEEARRLQGSGPEPLCVHCSAGCGRTGVLCTVDYVRQLLLTQMIPPDFSLFDVVLKMRKQRPAAVQTEEQYRFLYHTVAQMFCSTLQNASPHYQNIKENCAPLYDDALFLRTPQALLAIPRPPGGVLRSISVPGSPGHAMADTYAVVQKRGAPAGAGSGTQTGTGTGTGARSAEEAPLYSKVTPRAQRPGAHAEDARGTLPGRVPADQSPAGSGAYEDVAGGAQTGGLGFNLRIGRPKGPRDPPAEWTRV
As for B6, in [5], the binding result is on record as “binds”.

B7: PTPN18-GFP ΔpNLS1 (protein, UniProt Q99952)
chain: MSRSLDSARSFLERLEARGGREGAVLAGEFSDIQACSAAWKADGVCSTVAGSRPENVNFIRGVDGSLAYIATQGPLPHTLLDFWRLVWEFGVKVILMACREIENGRKRCERYWAQEQEPLQTGLFCITLIKEKWLNEDIMLRTLKVTFQKESRSVYQLQYMSWPDRGVPSSPDHMLAMVEEARRLQGSGPEPLCVHCSAGCGRTGVLCTVDYVRQLLLTQMIPPDFSLFDVVLKMRKQRPAAVQTEEQYRFLYHTVAQMFCSTLQNASPHYQNIKENCAPLYDDALFLRTPQALLAIPRPPGGVLRSISVPGSPGHAMADTYAVVQKRGAPAGAGSGTQTGTGTGTGARSAEEAPLYSKVTPRAQRPGAHAEDARGTLPGRVPADQSPAGSGAYEDVAGGAQTGGLGFNLRIGRPKGPRDPPAEWTRV
For the molecule B7, the binding entry in the test with Flag-MVP was “binds”.
